The term % Inhibition denotes the change of the read-out against control, counted positive when it falls.

SMILES strings stand for the structures. Screen size: about 150,000 compounds; about 540 (0.36%) showed an effect of 50% or more. The list shows a part of the results.

This note sets out measurements from ChEMBL document CHEMBL4888484, “Replenishing the malaria drug discovery pipeline: Screening and hit evaluation of the MMV Hit Generation Library 1 (HGL1) against asexual blood stage Plasmodium falciparum ,using a nano luciferase reporter read-out” (2022).

The assay concerns Plasmodium falciparum. Put plainly: Primary screen in NF54 nanoGlo assay, in single point, at 2uM, 72h; a lower Z score goes with more inhibition. Format: functional, Erythrocyte. Conditions: timepoint 72 hour.
For the molecule `N#CC1(C#N)C(C(N)=O)C1c1ccccc1Cl` (centres undefined), the “% Inhibition” value worked out at 2% and the Z score is -0.41.

For the molecule `Cc1nn(CCN2CCC(C#N)CC2)cc1CNCc1ccccc1`, the “% Inhibition” value was -2% and the Z score worked out at 0.37.

For the molecule `O=S(=O)(Oc1cc(Cl)ccc1-c1nc2ccccc2o1)c1cccc(Cl)c1Cl`, the “% Inhibition” value is -14% and the Z score amounted to 2.07.

With `Cc1cc(=O)cc(O)n1CCc1noc(C2CC2)n1`, the “% Inhibition” value is -6% and the Z score is given as 1.06.

On to `CC(=O)N1CCC(C(=O)Nc2cccc3ccccc23)CC1`, for which the “% Inhibition” value came to 6% and the Z score is listed as -1.27.

For the molecule `Cc1ccccc1N1CC[C@H](CNC(=O)C2CCN(Cc3ccco3)CC2)C1`, the “% Inhibition” value was -4% and the Z score was 0.56.

On to `CC(C)n1cc(-c2cn(C[C@H]3CCC4(COC4)O3)nn2)cn1`, for which the “% Inhibition” value is -5% and the Z score came out at 0.93.

Turning to `CCCCN1CCS(=O)(=O)c2c(Cl)c(N3CCN(CC)CC3)nc(Oc3ccc(C#N)cc3)c21`, the “% Inhibition” value is given as 3% and the Z score is listed as -0.54.

For `O=C1C[C@@H](c2ccccc2)N(S(=O)(=O)c2ccc(C(F)(F)F)cc2)CCN1`, the “% Inhibition” value came to 8% and the Z score is reported as -1.29.

As for `CCC(CC)C(=O)Nc1cc(C)ccc1O`, the “% Inhibition” value is listed as 2% and the Z score was -0.28.

Regarding `Cc1ccc(NC(=O)Cn2cccc(S(=O)(=O)N3CCCCCC3)c2=O)cc1C`, the “% Inhibition” value amounted to 1% and the Z score is listed as -0.21.

Turning to `Cc1oc2ncnc(NC(=O)c3cccnc3)c2c1C`, the “% Inhibition” value is -7% and the Z score came to 0.94.

Consider `Cc1ccc(CC(C)NC(=O)CCC2CCCO2)s1` (centres undefined), for which the “% Inhibition” value is recorded as -17% and the Z score was found to be 2.71.

On to `Cc1c(Br)cccc1CCNC(=O)[C@@H]1CN(C)C(=O)N1`, for which the “% Inhibition” value is -9% and the Z score is recorded as 1.2.

Turning to `COc1ccccc1NC(=O)[C@H]1CCCN(S(=O)(=O)Cc2ccccc2C)C1`, the “% Inhibition” value was determined as 14% and the Z score is -1.8.

As for `O=C(C1CC12CCc1ccccc12)N1CCCC(n2ccnn2)C1` (centres undefined), the “% Inhibition” value is recorded as -5% and the Z score was 0.96.

For `COc1ccc(Cn2nnc3ccccc3c2=O)cn1`, the “% Inhibition” value was -12% and the Z score is recorded as 1.37.

In the case of `COc1ccc(CN2C[C@H]3CC[C@@H](C2)N(C(=O)c2ccc(N)nc2)C3)cc1`, the “% Inhibition” value was determined as 5% and the Z score is on record as -1.02.

As to `c1ccc(-c2nc(N3CCN(CC4CC4)CC3)no2)cc1`, the “% Inhibition” value is given as -8% and the Z score is on record as 0.89.

Take `COCC(C)(C)N1CCN(S(=O)(=O)N2CCc3ccccc3C2)CC1`: the “% Inhibition” value is 0% and the Z score is listed as -0.01.

`O=C(NCc1ccncc1)c1cc(Br)c[nH]1`: the “% Inhibition” value was -12% and the Z score is reported as 1.

`CC(C)c1noc(Cc2ccc(NS(=O)(=O)C3CC3)cc2)n1`: the “% Inhibition” value is recorded as -12% and the Z score was determined as 1.25.

As to `Cc1cc2nn(CC(=O)Nc3cc(F)cc(F)c3)c(=O)n2c(Nc2ccc(C)c(F)c2)n1`, the “% Inhibition” value is -10% and the Z score is reported as 1.11.

For the molecule `C[C@H]1CN(c2cc(Cl)ccc2Cl)CCN1C(=O)c1cc[nH]c(=O)c1`, the “% Inhibition” value was -1% and the Z score stood at 0.29.

As for `CNC(=O)C[C@H](C)N(C)C(=O)Cc1c(F)cccc1Cl`, the “% Inhibition” value is reported as -7% and the Z score is 1.02.

Turning to `C=CCNC(=O)N[C@H](CCO)c1ccccc1`, the “% Inhibition” value is recorded as 1% and the Z score was -0.24.

In the case of `CC(=O)N1Cc2ccccc2C[C@H]1C(=O)N1CCc2cnccc21`, the “% Inhibition” value is -3% and the Z score stood at 0.35.

For the molecule `CN1CCCCC[C@H]1C(=O)NC1(CO)CCCC1`, the “% Inhibition” value is reported as -4% and the Z score came out at 0.61.

As to `COc1ccc(C(C)NCC2(O)CCOC2)c(Br)c1` (centres undefined), the “% Inhibition” value is listed as -10% and the Z score stood at 1.42.

With `CN[C@@H](C(=O)N(C)Cc1ccc(OC)c(C)c1)c1cnn(C)c1`, the “% Inhibition” value worked out at 0% and the Z score was -0.05.

As to `Cc1cc(CN[C@@H](C)CN(C)C(C)C)cnc1C`, the “% Inhibition” value is -10% and the Z score is 1.45.

`Cc1nn(CC2CC2)c(=O)n1CC(F)(F)F`: the “% Inhibition” value is on record as -31% and the Z score is reported as 4.58.

As to `CCc1[nH]nc(NC(=O)c2cscn2)c1C`, the “% Inhibition” value is -13% and the Z score was determined as 2.09.

On to `COc1ccc(CNc2nc(NCc3ccc(OC)c(OC)c3)n(C(=O)c3ccncc3)n2)cc1OC`, for which the “% Inhibition” value was 3% and the Z score is reported as -0.33.

With `COc1cccc(CNC(=O)C(=O)NC[C@H](O)c2cccc3ccccc23)c1`, the “% Inhibition” value is on record as -11% and the Z score was determined as 1.84.

Consider `Cc1cc(C)n(-c2nc3c(c(=O)n2CC(=O)N2CCCCC2)CCCC3)n1`, for which the “% Inhibition” value is listed as -4% and the Z score turned out to be 0.56.

On to `CCOC(=O)c1cc(S(=O)(=O)N2CCC[C@H]2C(=O)Nc2ccc(OCC)cc2)cn1C`, for which the “% Inhibition” value is given as -2% and the Z score is on record as 0.44.

Consider `CN(C)C(=O)OCCOc1cccc(Cl)c1C#N`, for which the “% Inhibition” value is listed as -11% and the Z score came out at 1.07.

As to `Cn1nc(C2CCN(C(=O)c3ccccc3)CC2)c2c1CCOC2`, the “% Inhibition” value was -6% and the Z score was 0.82.

Regarding `O=C1CN(C(=O)Nc2ccc(-c3cc[nH]n3)cc2)C2CCCCC2N1` (centres undefined), the “% Inhibition” value worked out at 30% and the Z score is -3.45.

Turning to `CN(C(=O)CCC(=O)Nc1cccc(O)c1)[C@H](c1ccccn1)C1CC1`, the “% Inhibition” value was found to be 0% and the Z score was found to be 0.08.

With `CCCC(=O)N1CC2(CCN(C(=O)OC(C)(C)C)CC2)[C@@H]2COC[C@@H]21`, the “% Inhibition” value was 3% and the Z score is recorded as -0.6.
